Reference: the supplement of paper PMC3334620
In all, about 33,000 sequences were measured (“E-score (-0.5 to 0.5)”: median about -0.012, highest 2% from about 0.29 on). The list shows a part of the results.

Each sequence was assayed against T1, Ybr033w (UniProt P38073) (assay: PBM E-score (8-mer binding enrichment) (E-score (-0.5 to 0.5)); higher = stronger / more preferred TF binding; most listed sequences are background and not binding sites). Conditions: protein concentration: 200 nM; construct: GST-full length.
T1 sequence: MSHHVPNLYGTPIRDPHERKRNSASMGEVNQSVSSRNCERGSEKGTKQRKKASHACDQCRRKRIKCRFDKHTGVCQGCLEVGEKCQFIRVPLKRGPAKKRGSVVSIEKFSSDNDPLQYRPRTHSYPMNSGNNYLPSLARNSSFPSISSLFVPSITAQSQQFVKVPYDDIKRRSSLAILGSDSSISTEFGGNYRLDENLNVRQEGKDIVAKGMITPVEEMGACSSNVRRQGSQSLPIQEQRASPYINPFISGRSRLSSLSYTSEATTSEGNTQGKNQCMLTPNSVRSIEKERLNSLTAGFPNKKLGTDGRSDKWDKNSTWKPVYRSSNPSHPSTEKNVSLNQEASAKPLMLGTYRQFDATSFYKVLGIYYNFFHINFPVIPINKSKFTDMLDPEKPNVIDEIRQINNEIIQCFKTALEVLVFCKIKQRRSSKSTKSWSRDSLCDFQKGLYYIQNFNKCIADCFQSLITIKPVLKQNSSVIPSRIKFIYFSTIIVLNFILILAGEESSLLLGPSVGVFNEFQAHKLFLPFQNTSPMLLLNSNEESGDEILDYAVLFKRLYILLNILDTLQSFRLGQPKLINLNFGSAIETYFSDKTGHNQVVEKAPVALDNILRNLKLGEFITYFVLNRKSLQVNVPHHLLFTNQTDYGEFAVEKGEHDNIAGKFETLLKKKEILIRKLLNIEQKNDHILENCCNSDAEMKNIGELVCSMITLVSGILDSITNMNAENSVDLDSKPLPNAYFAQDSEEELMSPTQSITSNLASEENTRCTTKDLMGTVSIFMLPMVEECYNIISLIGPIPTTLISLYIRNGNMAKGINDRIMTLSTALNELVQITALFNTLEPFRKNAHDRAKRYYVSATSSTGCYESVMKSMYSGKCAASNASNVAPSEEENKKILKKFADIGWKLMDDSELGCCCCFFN
Outline: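 Universal all-10-mer Agilent arrays, double-stranded by primer extension on fresh or once-stripped slides, were probed with about 100-200 nM GST-tagged yeast transcription factors made by PURExpress. Fluorescent anti-GST detected bound protein, and masliner normalised the scans. E-scores from the Universal PBM Analysis Suite were given to each ungapped eight-base word pooled with its reverse complement.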

Sequence | PBM E-score
AGGAATCC | -0.0666
CCAGTTCG | -0.123
CAGGCCCA | -0.268
CCTGCGCA | -0.185
GCCTAAAA | 0.0509
ATCGAAAC | 0.0901
GTACCAAC | 0.043
ACGCTGAC | -0.00817
CCGTCCTA | -0.117
ACAGCTAT | 0.0739
ACGCGTTG | -0.0239
CAGTGACG | -0.0112
GCTGTTAA | 0.0854
CGTGTGAG | -0.225
CATCGACC | -0.0962
ACGGCACT | -0.0495
AAAACTCA | 0.216
GAATGATA | 0.232
AAGCAATT | 0.223
AGATGTGA | 0.183
GCATTTTA | 0.197
TATGAAGA | 0.193
CTCCGTTC | -0.0235
TAGCATCA | 0.176
TCCCAAAA | 0.114

Sequence | PBM E-score
GCATCAGC | -0.0788
AATCTAGC | -0.0418
CACAGACC | -0.0503
CAAGCAGG | -0.111
AATCTGAA | 0.135
ACGGCCAA | 0.082
AGCAACTC | 0.0484
CGTCTCGC | -0.158
TCATAACA | 0.23
CCTTACGA | -0.256
ATCTCTAA | 0.102
AGAACCCG | -0.157
TAAAATTA | 0.288
CACATAGA | -0.00674
CACTCTCA | -0.123
GAAATTAA | 0.294
GGCGTGGA | -0.271
ACAGATCA | 0.107
ATACACGA | 0.0457
AAGGTCCT | -0.196
AGACAGGC | -0.107
CATACATA | 0.251
AATCGAGT | -0.0355
CGATACCC | -0.272
AATAACGA | 0.174

Sequence | PBM E-score
AGTGTTCG | 0.0756
AATTGAAT | 0.217
CCACCACC | -0.0273
ATCCGCGG | 0.096
CGTGCACG | -0.186
GTGACCCA | -0.14
CTACCACC | -0.252
ATAATAGA | 0.223
GATGTTTA | 0.14
CGACCACC | -0.216
ACTGGTCG | -0.237
GACAGCAA | 0.0664
CGGTAAAG | 0.0303
GATCGCAC | -0.0367
ACTCAAGC | 0.00745
ACGATCTA | -0.0695
CTGGACCC | -0.366
CCCTGATA | -0.0965
GAAGAGTC | -0.0956
ACGGATGG | 0.0259
CATTGCCC | -0.242
ATGTTAAA | 0.289
AGTAATCC | 0.155
AGGGCGAG | -0.241
GCCTCATA | -0.134

Sequence | PBM E-score
ACGAGGGC | -0.188
ACCTCTTA | 0.0989
AAAGGCTC | -0.114
TCTCACAA | 0.14
CTGATTCA | 0.131
GACTATCA | 0.0235
ATCAAAAC | 0.129
CGTCGATA | -0.0588
CAGTTGGA | 0.0551
ATCAGACC | -0.0685
GGAAGTCC | -0.0957
GATGTAGC | -0.16
AATGAGCT | 0.11
ATCGCAAC | 0.097
AATATGCA | 0.0723
GATCTCCA | -0.0356
ACTCTTAG | -0.0847
GAACCAAC | 0.145
GATATCGA | 0.151
ATCCGCCA | 0.0644
ACGTTCAT | -0.0796
GGGCCAGA | -0.312
GACACCCA | -0.057
AAGAATCT | 0.0556
GGCTTCCC | -0.281

Sequence | PBM E-score
AGGTCGAT | 0.0545
GATACGAC | 0.0451
AGTGATAC | 0.0374
ATGTCTAA | 0.182
GAACAGGA | -0.0725
CAAGTTGC | 0.0158
CCTCCACA | -0.0953
GTGCCTTA | -0.104
GTTTAACA | 0.0135
AGTACCTC | -0.201
ACGTTAGA | -0.105
CAGACGAC | -0.228
CAAACGCC | -0.0492
AAGTCACA | 0.0641
GGTTCCCA | -0.186
GGAATGAC | -0.16
CGCCGTTA | -0.00897
AAATCAGT | -0.00051
ATTGGAGC | 0.0711
ATAACCAC | 0.0831
GTCACGAC | -0.168
CCCAACAG | -0.0625
ACCGACTA | -0.283
AGCTGCAA | -0.16
GGGTGGAC | -0.179

Sequence | PBM E-score
GACCCCGA | -0.257
CGATTTGA | -0.0188
GAACTCCC | -0.0347
ACTTTATC | 0.277
GGAGCTTA | -0.132
GGGCCTCA | -0.254
CCGAGCGA | -0.0301
CAAATGCC | 0.00737
AAGACCCG | -0.0814
AATAGGCT | 0.0809
GGGATAAC | 0.00039
CTAATTGC | 0.106
CAGCGCCC | -0.124
GGGTCTCA | -0.282
GTCGGCAA | -0.158
CCTGTTGC | -0.0897
AAGCCTCA | -0.0877
TCTCCTAA | 0.0912
AACAGCGC | -0.0583
ACAACTAG | -0.0539
GGTTCCAA | 0.124
ACGTAAAC | -0.171
TACTTCGA | 0.188
AAACCGTC | 0.0244
AATGCTAT | 0.164

Sequence | PBM E-score
GGGCTAGA | -0.109
ACTCCTCC | -0.182
AGGCATGA | -0.148
TCGAAAAA | 0.27
GATGATTA | 0.0403
CGTCCGCA | -0.242
ACGTTTCC | -0.0963
CGCTCCAA | -0.171
CGGAGTTA | -0.127
GTTCTAAA | 0.0663
AACACTTG | 0.0758
GCCTACAA | -0.0334
CCCCGAGA | -0.228
TCGAGGAA | -0.00644
ACTGCACG | -0.0718
CGCTCGTC | -0.0709
AATGAGCC | -0.159
AAATGTCT | 0.172
GTCAATCA | 0.108
CCAAGATC | -0.012
ATCTTCCC | 0.121
AACCGATG | 0.0128
